# Results published in article PMC12820563, “FoxP3 forms a head-to-head dimer in vivo and stabilizes its multimerization on adjacent microsatellites”.
# The list shows a part of the results.
# Molecular target: T1, MBP-FoxP1dN (Mus musculus, UniProt P58462 326-579)
# T1 sequence: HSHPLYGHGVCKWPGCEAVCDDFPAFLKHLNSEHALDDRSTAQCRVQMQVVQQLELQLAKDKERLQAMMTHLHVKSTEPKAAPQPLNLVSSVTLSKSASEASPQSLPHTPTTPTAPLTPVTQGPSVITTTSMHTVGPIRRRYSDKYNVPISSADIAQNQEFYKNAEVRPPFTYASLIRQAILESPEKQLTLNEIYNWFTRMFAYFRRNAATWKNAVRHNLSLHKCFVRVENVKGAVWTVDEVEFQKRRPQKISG
# Test: PD-seq (MBP pull-down with sequencing); 20 mM Tris-HCl pH 7.5, 100 mM NaCl, 1.5 mM MgCl2, 0.4 uM protein, 0.1 uM dsDNA library, 30 min, room temperature, amylose pull-down; high values mean tight binding
# Conditions: protein: recombinant; tags: His6-MBP; chain copies: 2; dsDNA, one strand shown
# In short: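 The N-terminus-lacking fragment of mouse FoxP3 or FoxP1 carried a His6-MBP tag and was expressed in E. coli. At 0.4 µM it was incubated with 0.1 µM Klenow-filled degenerate double-stranded DNA library for 30 min at room temperature in Tris pH 7.5 buffer with NaCl and MgCl2, and complexes were caught on amylose resin, washed three times, released with proteinase K, PCR-barcoded and Illumina-sequenced. Binding is reads-per-million enrichment of pull-down over input with replicates pooled.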
row,Sequence,binding signal
1,GATGATTGTTCTCCCAGCTGATGAATTGATCAACTCGAGTAAACAAATTTTCCTAATCTTTCTGTTCAAGCGCCATCTAC,1.08 RPM ratio (pull-down/input)
2,GATGATTGTTCTCCCAGCTGATGAATTTTTGGAGTCGAGTAAACAAATTTTCCTAATCTTTCTGTTCAAGCGCCATCTAC,0.838 RPM ratio (pull-down/input)
3,GATGATTGTTCTCCCAGCTGATGAATTACGATGATCGAGTAAACAAATTTTCCTAATCTTTCTGTTCAAGCGCCATCTAC,1.1 RPM ratio (pull-down/input)
4,GATGATTGTTCTCCCAGCTGATGAATTAAACTTGTCGAGTAAACAAATTTTCCTAATCTTTCTGTTCAAGCGCCATCTAC,0.918 RPM ratio (pull-down/input)
5,GATGATTGTTCTCCCAGCTGATGAATTGCATAGTTCGAGTAAACAAATTTTCCTAATCTTTCTGTTCAAGCGCCATCTAC,1.24 RPM ratio (pull-down/input)
6,GATGATTGTTCTCCCAGCTGATGAATTCAAGCAGTCGAGTAAACAAATTTTCCTAATCTTTCTGTTCAAGCGCCATCTAC,0.947 RPM ratio (pull-down/input)
7,GATGATTGTTCTCCCAGCTGATGAATTCCCACATTCGAGTAAACAAATTTTCCTAATCTTTCTGTTCAAGCGCCATCTAC,0.955 RPM ratio (pull-down/input)
8,GATGATTGTTCTCCCAGCTGATGAATTGCATCGATCGAGTAAACAAATTTTCCTAATCTTTCTGTTCAAGCGCCATCTAC,1.2 RPM ratio (pull-down/input)
9,GATGATTGTTCTCCCAGCTGATGAATTTCTCTCATCGAGTAAACAAATTTTCCTAATCTTTCTGTTCAAGCGCCATCTAC,0.883 RPM ratio (pull-down/input)
10,GATGATTGTTCTCCCAGCTGATGAATTAGTGAGGTCGAGTAAACAAATTTTCCTAATCTTTCTGTTCAAGCGCCATCTAC,0.86 RPM ratio (pull-down/input)
11,GATGATTGTTCTCCCAGCTGATGAATTCCCAAACTCGAGTAAACAAATTTTCCTAATCTTTCTGTTCAAGCGCCATCTAC,0.789 RPM ratio (pull-down/input)
12,GATGATTGTTCTCCCAGCTGATGAATTAGAACACTCGAGTAAACAAATTTTCCTAATCTTTCTGTTCAAGCGCCATCTAC,0.949 RPM ratio (pull-down/input)
13,GATGATTGTTCTCCCAGCTGATGAATTGTGCGGTTCGAGTAAACAAATTTTCCTAATCTTTCTGTTCAAGCGCCATCTAC,1.04 RPM ratio (pull-down/input)
14,GATGATTGTTCTCCCAGCTGATGAATTCCTTGTATCGAGTAAACAAATTTTCCTAATCTTTCTGTTCAAGCGCCATCTAC,0.973 RPM ratio (pull-down/input)
15,GATGATTGTTCTCCCAGCTGATGAATTTCCTATGTCGAGTAAACAAATTTTCCTAATCTTTCTGTTCAAGCGCCATCTAC,0.811 RPM ratio (pull-down/input)
16,GATGATTGTTCTCCCAGCTGATGAATTATATTGATCGAGTAAACAAATTTTCCTAATCTTTCTGTTCAAGCGCCATCTAC,2.09 RPM ratio (pull-down/input)
17,GATGATTGTTCTCCCAGCTGATGAATTGGCGTAGTCGAGTAAACAAATTTTCCTAATCTTTCTGTTCAAGCGCCATCTAC,0.837 RPM ratio (pull-down/input)
18,GATGATTGTTCTCCCAGCTGATGAATTGACCGTTTCGAGTAAACAAATTTTCCTAATCTTTCTGTTCAAGCGCCATCTAC,0.977 RPM ratio (pull-down/input)
19,GATGATTGTTCTCCCAGCTGATGAATTTAGTTTCTCGAGTAAACAAATTTTCCTAATCTTTCTGTTCAAGCGCCATCTAC,0.929 RPM ratio (pull-down/input)
20,GATGATTGTTCTCCCAGCTGATGAATTGTCCGTCTCGAGTAAACAAATTTTCCTAATCTTTCTGTTCAAGCGCCATCTAC,0.872 RPM ratio (pull-down/input)
21,GATGATTGTTCTCCCAGCTGATGAATTAGAGCTCTCGAGTAAACAAATTTTCCTAATCTTTCTGTTCAAGCGCCATCTAC,0.834 RPM ratio (pull-down/input)

row,Sequence,binding signal
1,GATGATTGTTCTCCCAGCTGATGAATTACTTATGTCGAGTAAACAAATTTTCCTAATCTTTCTGTTCAAGCGCCATCTAC,1.31 RPM ratio (pull-down/input)
2,GATGATTGTTCTCCCAGCTGATGAATTCCACCACTCGAGTAAACAAATTTTCCTAATCTTTCTGTTCAAGCGCCATCTAC,0.844 RPM ratio (pull-down/input)
3,GATGATTGTTCTCCCAGCTGATGAATTAAAACGCTCGAGTAAACAAATTTTCCTAATCTTTCTGTTCAAGCGCCATCTAC,0.985 RPM ratio (pull-down/input)
4,GATGATTGTTCTCCCAGCTGATGAATTTATTACATCGAGTAAACAAATTTTCCTAATCTTTCTGTTCAAGCGCCATCTAC,1.21 RPM ratio (pull-down/input)
5,GATGATTGTTCTCCCAGCTGATGAATTTTACTCGTCGAGTAAACAAATTTTCCTAATCTTTCTGTTCAAGCGCCATCTAC,0.785 RPM ratio (pull-down/input)
6,GATGATTGTTCTCCCAGCTGATGAATTTCTCAGTTCGAGTAAACAAATTTTCCTAATCTTTCTGTTCAAGCGCCATCTAC,0.777 RPM ratio (pull-down/input)
7,GATGATTGTTCTCCCAGCTGATGAATTCCAAGGATCGAGTAAACAAATTTTCCTAATCTTTCTGTTCAAGCGCCATCTAC,0.795 RPM ratio (pull-down/input)
8,GATGATTGTTCTCCCAGCTGATGAATTACCGGACTCGAGTAAACAAATTTTCCTAATCTTTCTGTTCAAGCGCCATCTAC,0.873 RPM ratio (pull-down/input)
9,GATGATTGTTCTCCCAGCTGATGAATTCAGAGGTTCGAGTAAACAAATTTTCCTAATCTTTCTGTTCAAGCGCCATCTAC,0.772 RPM ratio (pull-down/input)
10,GATGATTGTTCTCCCAGCTGATGAATTACAATGATCGAGTAAACAAATTTTCCTAATCTTTCTGTTCAAGCGCCATCTAC,1.33 RPM ratio (pull-down/input)
11,GATGATTGTTCTCCCAGCTGATGAATTCTTAATATCGAGTAAACAAATTTTCCTAATCTTTCTGTTCAAGCGCCATCTAC,1.08 RPM ratio (pull-down/input)
12,GATGATTGTTCTCCCAGCTGATGAATTAGAGGTTTCGAGTAAACAAATTTTCCTAATCTTTCTGTTCAAGCGCCATCTAC,0.899 RPM ratio (pull-down/input)
13,GATGATTGTTCTCCCAGCTGATGAATTCAAATACTCGAGTAAACAAATTTTCCTAATCTTTCTGTTCAAGCGCCATCTAC,1.01 RPM ratio (pull-down/input)
14,GATGATTGTTCTCCCAGCTGATGAATTGCTGCCATCGAGTAAACAAATTTTCCTAATCTTTCTGTTCAAGCGCCATCTAC,1.08 RPM ratio (pull-down/input)
15,GATGATTGTTCTCCCAGCTGATGAATTGACTGACTCGAGTAAACAAATTTTCCTAATCTTTCTGTTCAAGCGCCATCTAC,0.978 RPM ratio (pull-down/input)
16,GATGATTGTTCTCCCAGCTGATGAATTAGAAAGATCGAGTAAACAAATTTTCCTAATCTTTCTGTTCAAGCGCCATCTAC,0.82 RPM ratio (pull-down/input)
17,GATGATTGTTCTCCCAGCTGATGAATTTAACAAGTCGAGTAAACAAATTTTCCTAATCTTTCTGTTCAAGCGCCATCTAC,0.884 RPM ratio (pull-down/input)
18,GATGATTGTTCTCCCAGCTGATGAATTTGTCAGATCGAGTAAACAAATTTTCCTAATCTTTCTGTTCAAGCGCCATCTAC,0.993 RPM ratio (pull-down/input)
19,GATGATTGTTCTCCCAGCTGATGAATTCGTAAGGTCGAGTAAACAAATTTTCCTAATCTTTCTGTTCAAGCGCCATCTAC,0.821 RPM ratio (pull-down/input)
20,GATGATTGTTCTCCCAGCTGATGAATTTGAGCTTTCGAGTAAACAAATTTTCCTAATCTTTCTGTTCAAGCGCCATCTAC,0.854 RPM ratio (pull-down/input)
21,GATGATTGTTCTCCCAGCTGATGAATTACTGCCTTCGAGTAAACAAATTTTCCTAATCTTTCTGTTCAAGCGCCATCTAC,0.946 RPM ratio (pull-down/input)

row,Sequence,binding signal
1,GATGATTGTTCTCCCAGCTGATGAATTCGCGCAGTCGAGTAAACAAATTTTCCTAATCTTTCTGTTCAAGCGCCATCTAC,0.818 RPM ratio (pull-down/input)
2,GATGATTGTTCTCCCAGCTGATGAATTTGATTGGTCGAGTAAACAAATTTTCCTAATCTTTCTGTTCAAGCGCCATCTAC,0.963 RPM ratio (pull-down/input)
3,GATGATTGTTCTCCCAGCTGATGAATTGGATCTGTCGAGTAAACAAATTTTCCTAATCTTTCTGTTCAAGCGCCATCTAC,0.896 RPM ratio (pull-down/input)
4,GATGATTGTTCTCCCAGCTGATGAATTAGGCCCATCGAGTAAACAAATTTTCCTAATCTTTCTGTTCAAGCGCCATCTAC,0.982 RPM ratio (pull-down/input)
5,GATGATTGTTCTCCCAGCTGATGAATTGTGGACATCGAGTAAACAAATTTTCCTAATCTTTCTGTTCAAGCGCCATCTAC,1.22 RPM ratio (pull-down/input)
6,GATGATTGTTCTCCCAGCTGATGAATTGAGGAGATCGAGTAAACAAATTTTCCTAATCTTTCTGTTCAAGCGCCATCTAC,0.793 RPM ratio (pull-down/input)
7,GATGATTGTTCTCCCAGCTGATGAATTGGGGGGATCGAGTAAACAAATTTTCCTAATCTTTCTGTTCAAGCGCCATCTAC,0.778 RPM ratio (pull-down/input)
8,GATGATTGTTCTCCCAGCTGATGAATTTGCCAGCTCGAGTAAACAAATTTTCCTAATCTTTCTGTTCAAGCGCCATCTAC,0.835 RPM ratio (pull-down/input)
9,GATGATTGTTCTCCCAGCTGATGAATTCTAATCGTCGAGTAAACAAATTTTCCTAATCTTTCTGTTCAAGCGCCATCTAC,0.825 RPM ratio (pull-down/input)
10,GATGATTGTTCTCCCAGCTGATGAATTCTAGGTGTCGAGTAAACAAATTTTCCTAATCTTTCTGTTCAAGCGCCATCTAC,0.883 RPM ratio (pull-down/input)
11,GATGATTGTTCTCCCAGCTGATGAATTTGTTGATTCGAGTAAACAAATTTTCCTAATCTTTCTGTTCAAGCGCCATCTAC,2.39 RPM ratio (pull-down/input)
12,GATGATTGTTCTCCCAGCTGATGAATTATACGGCTCGAGTAAACAAATTTTCCTAATCTTTCTGTTCAAGCGCCATCTAC,0.879 RPM ratio (pull-down/input)
13,GATGATTGTTCTCCCAGCTGATGAATTAGGCGAATCGAGTAAACAAATTTTCCTAATCTTTCTGTTCAAGCGCCATCTAC,0.966 RPM ratio (pull-down/input)
14,GATGATTGTTCTCCCAGCTGATGAATTGACGCTCTCGAGTAAACAAATTTTCCTAATCTTTCTGTTCAAGCGCCATCTAC,1.03 RPM ratio (pull-down/input)
15,GATGATTGTTCTCCCAGCTGATGAATTTGCATTTTCGAGTAAACAAATTTTCCTAATCTTTCTGTTCAAGCGCCATCTAC,1.61 RPM ratio (pull-down/input)
16,GATGATTGTTCTCCCAGCTGATGAATTAGCTTCATCGAGTAAACAAATTTTCCTAATCTTTCTGTTCAAGCGCCATCTAC,0.938 RPM ratio (pull-down/input)
17,GATGATTGTTCTCCCAGCTGATGAATTTATTACGTCGAGTAAACAAATTTTCCTAATCTTTCTGTTCAAGCGCCATCTAC,1.11 RPM ratio (pull-down/input)
18,GATGATTGTTCTCCCAGCTGATGAATTCCGTCTTTCGAGTAAACAAATTTTCCTAATCTTTCTGTTCAAGCGCCATCTAC,0.942 RPM ratio (pull-down/input)
19,GATGATTGTTCTCCCAGCTGATGAATTGTCCTTTTCGAGTAAACAAATTTTCCTAATCTTTCTGTTCAAGCGCCATCTAC,1.07 RPM ratio (pull-down/input)
20,GATGATTGTTCTCCCAGCTGATGAATTTCCCGCCTCGAGTAAACAAATTTTCCTAATCTTTCTGTTCAAGCGCCATCTAC,0.915 RPM ratio (pull-down/input)
21,GATGATTGTTCTCCCAGCTGATGAATTCTTGCCCTCGAGTAAACAAATTTTCCTAATCTTTCTGTTCAAGCGCCATCTAC,0.749 RPM ratio (pull-down/input)
